# Experimental data reported in PMC12040169 (PLOS Biology, 2025).
# The other results are listed elsewhere or left out.
# Tested on: T1, C. trachomatis L2/434/Bu expressing GFP (CTL2-GFP)
# T1 construct: L2/434/Bu GFP intracellular growth in HeLa cells
# Design: species or system HeLa; C. trachomatis total inclusion area by high-content imaging, normalised to DMSO
# Settings: total inclusion area; 28.5 h, 10 µM; inhibitor
# Summary of the method: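 Imaging read-out: GFP inclusions and Hoechst nuclei captured by high-content imaging after fixation. Inclusion area/number = chlamydial growth; nuclei count = host cell viability. MIC calculated per earlier method.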
row,SMILES,% of control remaining
1,CC(=O)Nc1ccc(CNC(=O)c2ccc(C(F)(F)F)cn2)cc1 [CBK252121],39.8814
2,COc1ccc(S(=O)(=O)N(CC(=O)N2CCc3ccccc3C2)C2CCCCC2)cc1Cl [CBK268525],97.3536
3,Cc1cccn2c(=O)cc(CN3CCC(c4cn[nH]c4)CC3)nc12 [CBK305764],37.7556
4,COc1ccc2nc(Nc3nc(-c4cccnc4)cs3)sc2c1 [CBK287482],83.9661
5,Cc1nonc1CC(=O)N1C2CCC1CC(c1ccc(F)cc1)C2 (centres unmarked) [CBK283739],97.8758
6,Cc1ccn2cc(-c3cc4c(ccc5ccccc54)oc3=O)nc2c1 [CBK287313],101.133
7,CC(=O)OC(COc1ccc2ccccc2c1Br)Cn1cnc2ccccc21 (centres unmarked) [CBK266083],71.686
8,CCNC(=O)NCc1ccc(F)cc1 [CBK115581],77.5611
9,Cc1cc(C(=O)CSc2nccc(C(F)(F)F)n2)c(C)n1C1CC1 [CBK305238],42.2275
10,NC(=O)c1ccc2[nH]c(-c3cscn3)nc2c1 [CBK017800],85.6988
11,COc1cccc(-c2nnc(NC(=O)c3ccc4c(c3)OCCO4)o2)c1 [CBK287591],95.7222
12,CC(C)COc1ccc(C(CC(=O)O)C(=O)O)cc1 (centres unmarked) [CBK286759],83.0056
13,CN(C)CCNc1cc(-c2ccc3ccccc3c2)nc2ccccc12 [CBK278186B],4.361
14,Cc1cccc2c(=O)nc(-c3ccccc3Cl)oc12 [CBK152422],72.2358
15,COc1ccc2[nH]cc(CCNC(=O)c3cccnc3)c2c1 [CBK122722],119.273
16,CN1CCC(OC(=O)COc2ccc(Cl)cc2Cl)CC1 [CBK266389C],93.0255
17,O=S1(=O)CCN(Cc2cn(-c3ccc(-c4ccccc4)cc3)nn2)CC1 [CBK113105],103.92
18,CCNC(=O)/N=C(\N)Nc1nc2ccccc2s1 [CBK028890],53.5463
19,CCOc1ccc(CN(C)C(=O)Nc2cc(C)on2)cc1 [CBK306216],28.8307
20,CSc1nc(O)c(C(c2cccc([N+](=O)[O-])c2)c2c(O)nc(SC)nc2O)c(O)n1 [CBK265370],118.199
21,O=C(NCc1ccc(Cl)c(Cl)c1)N1CCN(c2cc(C(F)(F)F)ccn2)CC1 [CBK156434],76.1729
22,COC(=O)c1c(NC(=S)Nc2ccc(Br)cn2)sc2c1CCC2 [CBK266862],99.4651
23,N[C@H](CCc1nc2ccccc2[nH]1)C(=O)O [CBK172614],113.336
24,CCN(CC)C(=O)C1CCCN(C(=O)NCCN2CCOCC2)C1 (centres unmarked) [CBK156128],104.744
25,CCOc1cc(NC2CCN(C(=O)CC3CCCCC3)CC2)ncn1 [CBK305506],86.3528
26,Nc1ncc(-c2ccc(C(F)(F)F)cc2)c(C2CCCN(C(=O)CN3CCCC3)C2)n1 (centres unmarked) [CBK285649],116.801
27,COCCNc1nc(-c2cccc3ccccc23)cnc1N [CBK063574],90.5185

row,SMILES,% of control remaining
1,COCCN1CCn2c(nc3cc(NC(=O)c4ccccc4)ccc32)C1 [CBK307410],83.483
2,CC(NC(=O)C1(Cn2ccnc2)CC1)c1nc(-c2ccccn2)no1 (centres unmarked) [CBK307514],55.5062
3,CN1C(=O)C2(N=C(N)NC(Nc3ccc(F)cc3)=N2)c2ccccc21 (centres unmarked) [CBK270285],108.949
4,O=C(NNC(=O)c1ccc2c(c1)C(=O)N(Cc1ccco1)C2=O)c1cccnc1 [CBK267403],94.0943
5,CC1(C)Cc2ccccc2C(NCCC(=O)O)=N1 [CBK023412],92.3257
6,CNC(=O)c1ccc(-c2ccc(CNC(=O)C3(c4cccc(F)c4)CCCC3)cc2)nc1C [CBK286013],101.737
7,Cc1oc(NC(=O)CN2CCN(c3ccccc3)CC2)c(C#N)c1C [CBK306044],88.8946
8,O=C(NCCNCc1ccco1)c1ccc(F)cc1 [CBK266873G],93.6563
9,Cc1ccccc1NC(=O)Cn1c(=O)n(CC(=O)Nc2ccccc2C)c2ccccc21 [CBK266938],114.121
10,CN1C(CC(O)c2ccccc2)CCCC1C(=O)c1ccccc1 (centres unmarked) [CBK268467C],77.4329
11,O=C1COc2ccccc2C/C=C/CC2(CCCNC2)CN1 (centres unmarked) [CBK292029],108.886
12,CS(=O)(=O)N1CCC(C(=O)NNC(=S)Nc2cccc3ccccc23)CC1 [CBK266811],76.938
13,Cc1ccc(S(=O)(=O)NCC(=O)N2CCN(c3ccc(Cl)cc3)CC2)cc1 [CBK091315],103.492
14,CC(C)c1ccc(/C=C/C(=O)NCC2COc3ccccc3O2)cc1 (centres unmarked) [CBK149619],75.3655
15,NC(=O)c1cccc(-c2cnc(N)c(NC3CCOCC3)n2)c1 [CBK063836],112.59
16,O=C(Cn1ncc2cccn2c1=O)Nc1ccc(F)cc1 [CBK283672],87.9824
17,COCCN1CCCC(NC(C)c2ccc(OC)c(F)c2)C1 (centres unmarked) [CBK305099],108.962
18,COCCn1c(C)cc(C(=O)CSc2cc(C)c3ccccc3n2)c1C [CBK266437],57.3152
19,O=C(O)c1ccc(Oc2cccc([N+](=O)[O-])c2)cc1C(=O)O [CBK261179],89.5308
20,COc1ccccc1CNCc1ccccn1 [CBK262261],106.376
21,O=C1Nc2ccccc2C12NN=C(c1ccccc1)S2 (centres unmarked) [CBK017221],78.9961
22,Cc1cc(C)n(CC(=O)N2CCC(c3cc4cccnc4[nH]3)CC2)n1 [CBK284999],96.4041
23,N=C(N)NCCc1ccc(Cl)cc1 [CBK024074G],80.8174
24,CS(=O)(=O)c1ccc(-n2nnnc2CN2CCC3(CCCC3)C2)cc1 [CBK306178],47.1277
25,O=C(O)CSc1ccc(Br)c2cccc(C(=O)O)c12 [CBK126919],114.428
26,CCOc1ccc(Cc2nnc(S)n2C2CC2)cc1OCC [CBK288388],81.3019
